# Experimental data published in article PMC4336329 (PLoS ONE, 2015).
# Screen size: about 310,000 compounds; about 14,000 (4.5%) showed an effect of 50% or more. The effect is printed as a negative number. Some of the results follow.
# Molecular target: human ether-à-go-go-related gene (hERG) potassium channel (human, UniProt Q12809)
# Test: primary screen, population patch clamp on CHO cells stably expressing hERG
# 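Further: peak tail current of the secondary pulse compared with the same well before compound.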
# human ether-à-go-go-related gene (hERG) potassium channel, sequence (Q12809 whole entry, looked up): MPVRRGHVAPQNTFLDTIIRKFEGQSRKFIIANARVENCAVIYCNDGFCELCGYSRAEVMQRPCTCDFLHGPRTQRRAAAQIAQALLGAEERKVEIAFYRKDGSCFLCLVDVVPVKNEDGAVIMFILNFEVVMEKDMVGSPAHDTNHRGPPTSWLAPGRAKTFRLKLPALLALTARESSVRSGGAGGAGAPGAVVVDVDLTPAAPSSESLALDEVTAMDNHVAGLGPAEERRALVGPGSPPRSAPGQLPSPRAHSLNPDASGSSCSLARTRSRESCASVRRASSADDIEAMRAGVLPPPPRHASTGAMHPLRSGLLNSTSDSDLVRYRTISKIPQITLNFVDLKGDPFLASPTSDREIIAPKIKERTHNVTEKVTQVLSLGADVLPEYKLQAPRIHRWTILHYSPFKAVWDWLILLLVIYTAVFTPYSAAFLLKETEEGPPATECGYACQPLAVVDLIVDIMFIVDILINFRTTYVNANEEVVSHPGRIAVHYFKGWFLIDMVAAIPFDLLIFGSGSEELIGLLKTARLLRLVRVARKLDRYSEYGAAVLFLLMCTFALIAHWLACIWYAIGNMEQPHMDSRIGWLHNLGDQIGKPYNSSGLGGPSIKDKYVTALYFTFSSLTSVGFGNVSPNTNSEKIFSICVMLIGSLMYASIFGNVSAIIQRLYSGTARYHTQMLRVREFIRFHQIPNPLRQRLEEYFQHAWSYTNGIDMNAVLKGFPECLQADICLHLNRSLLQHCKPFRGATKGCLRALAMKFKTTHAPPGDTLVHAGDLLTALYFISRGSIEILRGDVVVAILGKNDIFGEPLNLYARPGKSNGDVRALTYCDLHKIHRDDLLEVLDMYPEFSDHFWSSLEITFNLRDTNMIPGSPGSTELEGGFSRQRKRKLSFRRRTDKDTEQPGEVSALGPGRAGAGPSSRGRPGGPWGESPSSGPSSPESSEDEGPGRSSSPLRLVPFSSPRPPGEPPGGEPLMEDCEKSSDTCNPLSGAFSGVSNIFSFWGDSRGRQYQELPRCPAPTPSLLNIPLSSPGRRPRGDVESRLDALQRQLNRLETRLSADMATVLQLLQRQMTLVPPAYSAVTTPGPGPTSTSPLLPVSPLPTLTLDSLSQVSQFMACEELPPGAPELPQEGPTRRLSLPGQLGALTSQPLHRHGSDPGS
row,SMILES,"hERG current change (%, negative = inhibition) at 10uM [%]"
1,Cn1c(Cn2c(=O)sc3ccccc32)nnc1SCC(=O)NCc1ccc(F)cc1,7.17
2,COc1ccc(-c2cc(C(=O)Nc3c(Cl)cc(Cl)cc3Cl)c3ccccc3n2)cc1OC,6.81
3,CNC(=O)Nc1cccc(-c2cc(-c3c(Cl)cccc3Cl)no2)c1,2.41
4,Cc1ccc(S(=O)(=O)N(C)CC(=O)Nc2cccc3c2CCCC3)cc1,-2.82
5,CCOC(=O)c1c(C)[nH]c(C)c1C(=O)COC(=O)c1ccc(Cl)c(S(N)(=O)=O)c1,3.98
6,CCc1ccc(NC(=O)CN(CC(=O)Nc2ccc(CC)cc2)CC(C)O)cc1 (stereo not drawn),-28.5
7,O=c1cc(-c2ccccc2)[nH][nH]1,-5.02
8,CO[C@H]1/C=C/O[C@@]2(C)Oc3c(C)c(O)c4c(O)c(c(C=NN5CCN(C)CC5)c(O)c4c3C2=O)NC(=O)/C(C)=C\C=C\[C@H](C)[C@H](O)[C@@H](C)[C@@H](O)[C@@H](C)[C@H](OC(C)=O)[C@@H]1C,2.29
9,COc1cccc(OCCOc2cccc(/C=N/n3cnnc3)c2)c1,-4.9
10,O=C(Cn1c(-c2ccccc2)noc1=O)NCc1ccccc1,6.47
11,O=C(NNC(=O)c1cc([N+](=O)[O-])ccc1Cl)c1cccs1,20.8
12,COc1ccccc1CNS(=O)(=O)c1csc(C(N)=O)c1,20.1
13,Cc1cc(C)nc(SCC(=O)N2CCCCC2)n1,-4.66
14,COCCN1CCN(C(=O)C2CCC(=O)N(CCCc3ccccc3)C2)CC1 (stereo not drawn),16.6
15,CC(C)CCNC(=O)CN(C(=O)CCC(=O)Nc1nccs1)c1ccc2c(c1)OCCO2,-4.45
16,Cc1nc(-c2ccc(C(=O)Nc3cccc(Br)c3)cc2)cs1,7.02
17,COc1ccc(/C=N/NC(=O)c2cccc(NC(=O)c3ccccc3Cl)c2)c(OC)c1,6.14
18,O=C(N/C(=C\c1ccccc1Cl)C(=O)N1CCOCC1)c1ccc([N+](=O)[O-])cc1,-66
19,COc1ccc(C(CC(=O)NCc2ccccc2)Sc2n[nH]c(-c3ccccc3)n2)cc1 (stereo not drawn),14
20,O=C(NNc1cccc(Cl)n1)Nc1cccc(Cl)c1,-2.54
21,CCN1CCN(C(=O)c2ccc(C)c(S(=O)(=O)Nc3cccc(C)c3)c2)CC1,-16.3

row,SMILES,"hERG current change (%, negative = inhibition) at 10uM [%]"
1,Cn1c(O)c(/C=N/c2ncccn2)c(=O)n(C)c1=O,-9.26
2,CCC1=Nc2cc(C(=O)NCCN3CCOCC3)ccc2Sc2ccc(Br)cc21,-26.1
3,COc1ccccc1[As](=O)(O)CC(O)COc1ccc(Cl)cc1Cl (stereo not drawn),4.97
4,COc1ccc(C(=O)NNC(=O)CN2CCN(c3nc(-c4ccccc4)cs3)CC2)cc1,11
5,CN(C)c1ccc(N=C/C=C2\N(C)c3ccccc3C2(C)C)cc1,-82.8
6,Cc1cnc(C(=O)OCC(=O)NC(=O)NC(C)C)cn1,10.3
7,O=C(N/N=C/c1cc(Cl)ccc1O)c1ccc(Br)cc1,23.2
8,O=C(O)C(=O)O.O=C(c1cccc(Cl)c1)N1CCN(C2CCCCC2)CC1,-40.8
9,COc1cc(CC(=O)Nc2ccccc2N2CCCCC2)cc(OC)c1OC,-22.1
10,c1ccc(-n2c(-c3cccs3)nc3nc4ccccc4nc32)cc1,5.51
11,CN(CC(=O)NCc1ccc(Cl)cc1)S(=O)(=O)c1cccs1,-12.2
12,CN1C[C@H](C(=O)N[C@]2(C)O[C@@]3(O)[C@@H]4CCCN4C(=O)[C@H](Cc4ccccc4)N3C2=O)CC2c3cccc4[nH]cc(c34)C[C@H]21.O=C(O)C(O)C(O)C(=O)O (stereo partly drawn),2.03
13,Cc1cc(C)cc(NC(=O)CCc2ccc(C)o2)c1,-19.2
14,COc1ccc2[nH]c3c(=O)n4c(nc3c2c1)SCCC4,-8.13
15,NNC(=O)c1[nH]c2ccccc2c1-c1ccccc1,19.2
16,CCc1noc(C)c1C(=O)N1CCN(S(=O)(=O)c2ccccc2C(F)(F)F)CC1,-11.7
17,CN(Cc1cccc(F)c1)C(=O)c1ccc(S(=O)(=O)N2CCOCC2)cc1,-4.57
18,COc1ccc(CCNC(=O)C2=CC=CN3CCS(=O)(=O)N=C23)cc1,-7.92
19,Cc1c(Cl)cccc1NC(=O)N1CCCN(c2nc(-c3ccccc3)ns2)CC1,2.41
20,CC1=NN(C(N)=S)C(=O)C1N=Nc1ccc(C)cc1C (stereo not drawn),1.29
21,CC(=O)c1cccc(N(CC(=O)N2CCOCC2)S(C)(=O)=O)c1,8.61

row,SMILES,"hERG current change (%, negative = inhibition) at 10uM [%]"
1,C=CCn1c(Cc2csc(N)n2)nnc1SCc1ccc(C(=O)OC)cc1,-4.79
2,CCCS(=O)(=O)n1nc(-c2ccc(OC)cc2OC)cc1N,-17.9
3,COC(=O)CSc1nsc(SCC(=O)OC)c1C#N,5.34
4,COc1ccc(NC(=O)Cc2ccc(-c3ccccc3)cc2)cn1,-3.01
5,Cc1ccc(S(=O)(=O)N2CCN(CC(=O)N/N=C/c3ccccc3OCC(=O)O)CC2)cc1,10.5
6,Cc1cccc(C)c1NC(=O)CCN1C(=O)C2C3CCC(C3)C2C1=O (stereo not drawn),-6.63
7,Cc1nc2ccc(S(=O)(=O)NCC(=O)N3CCCC(C)C3)cc2s1 (stereo not drawn),1.27
8,Cc1nc(-n2ncc(C#N)c2N)c2c3c(sc2n1)CCC3,-1.01
9,C#Cc1ccc([C@@H]2C=C(C(=O)NCc3nc4ccccc4[nH]3)O[C@H](OCC)[C@H]2CCCO)cc1,-30.7
10,CCOC(=O)c1c(NC(=O)CCS(=O)(=O)c2ccccc2)sc2c1CC(C)(C)NC2(C)C,-44.9
11,CC1=C(C(=O)O)N2C(=O)C(NC(=O)c3ccc(F)cc3)C2SC1 (stereo not drawn),7.21
12,CCNC(C(=O)c1c[nH]c2c(CC)cccc12)c1ccccc1 (stereo not drawn),20.3
13,CC1(c2nnc(-c3ccc(Cl)cc3)o2)CC(c2cccnc2)=NO1 (stereo not drawn),-20.7
14,C[C@@H]1NS(=O)(=O)[C@H]2C[C@@H]3C=C[C@]2(O3)[C@H]1OC(=O)Nc1ccc(C(F)(F)F)cc1[N+](=O)[O-],9.28
15,CCOP(=O)(c1ccc(N(C)C)cc1)C(O)c1ccc(Cl)cc1 (stereo not drawn),-5.75
16,Cc1cccn2c(/C=N/OCc3cccc(F)c3)c(-c3ccc(Cl)cc3)nc12,7.45
17,O=C1C2C(C(=O)N1/N=C/c1ccc(N3CCCCC3)o1)C1C=CC2C12CC2 (stereo not drawn),-21.2
18,COc1ccc(-c2c(C#N)c(SCC(=O)Nc3ccccc3)nc3c2CCCC3)cc1,22.2
19,COc1ccc(-c2cc(C(F)(F)F)nc(NC3CCCC3)n2)cc1OC,-9.12
20,CC1(C(=O)Nc2nnc(C(C)(C)C)s2)Cc2ccccc2C(=O)O1 (stereo not drawn),-5.49
21,O=C(CCCc1ccccc1)Nc1ccnn1C1CCN(Cc2ccc(CO)o2)CC1,-10.5

row,SMILES,"hERG current change (%, negative = inhibition) at 10uM [%]"
1,Cc1cc(Br)ccc1NC(=O)CN(C)C(=O)COc1cccc2c1OC(C)(C)C2,-8.15
2,O=C(NCc1ccco1)C1CCCN(S(=O)(=O)c2cnc[nH]2)C1 (stereo not drawn),-0.543
3,COc1ccc(C(=O)n2cnc3ccccc32)cc1,-0.37
4,CCOC(=O)C1=C(C)N(CCCCCC(=O)O)C(=O)NC1c1ccc(Br)cc1 (stereo not drawn),5.33
5,O=C1NC(=S)S/C1=C\c1coc2ccc(O)cc2c1=O,14.4
6,Cc1c(NC(=O)c2c(F)cccc2F)c(=O)n(-c2ccccc2)n1C,-2.98
7,O=C(CNCC1(N2CCOCC2)CCCCC1)Nc1ccc(Cl)cc1,-78.8
8,COc1ccc(S(=O)(=O)Nc2cc3c4c(oc3c3ccccc23)CCCC4=O)cc1,8.01
9,Nc1ccc2nc(NC(=O)C3CCCCC3)sc2c1,-11.1
10,CCCCc1ccc(NC(=O)CC(C)C)cc1,-6.78
11,COc1ccc2[nH]c(=O)c(CN(C(=O)c3ccco3)C3CCCCC3)cc2c1,-17.9
12,O=C(NCc1ccccn1)c1nc(-c2ccc(C(F)(F)F)cc2)no1,-10.2
13,O=C(COC(=O)C12CC3CC(CC(C3)C1)C2)N1CCN(S(=O)(=O)c2ccccc2)CC1,9.27
14,COc1cccc(/C=C/C(=O)OCC(=O)N2CCN(c3ccccc3)CC2)c1,-23.6
15,CCOc1cc(C)c(C(C)C)cc1S(=O)(=O)n1ccc(C)n1,-29.4
16,COc1ccc(C(=O)/C=C2/Sc3cc4c(cc3N2C)OCO4)cc1,9.89
17,Cl.OC1(c2ccc3ccccc3c2)CCN(Cc2ccccc2)C1 (stereo not drawn),-57.1
18,Cc1cc2c(cc1C)CSC(c1ccccc1O)SC2,1.15
19,Br.N=c1ccn(CC(=O)c2ccc(-c3ccccc3)cc2)cc1,-6.07
20,COc1ccc(C(=O)N/N=C/c2ccc(OC)c(CSc3ccccn3)c2)cc1,-13.6
21,Cc1cccc(NC(=O)c2oc3ccc(S(=O)(=O)N4CCOCC4)cc3c2C)c1C,-9.47
